The text below walks through data of a collection of fitness landscapes (doi:10.1038/s41467-024-54723-y).

Whole data set: some 18,000 sequences, median “TetR repression strength (sort-seq, GFP reporter)” near 0.23, cut for the highest 2% near 0.68. This is one part of the list.

The target of the assay is TetR (class B, Tn10) (UniProt P04483). The assay is described as follows: TetR repression strength (sort-seq, GFP reporter) (relative to tetO2 = 1); higher = stronger repression. The note with it: E. coli. An outline of the steps: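 In LB with 50 µg/mL chloramphenicol, E. coli SIG10-MAX holding a low-copy library with eight randomized operator positions between a constitutive promoter and sfGFP, plus constitutive TetR, grew for 5 h at 37 °C. FACS then sorted 10^6 cells into 13 fluorescence bins for Illumina sequencing of each bin. Repression strength equals the top bin index plus one less the read-weighted mean bin, normalized to the unaltered operator. Values from three independent transformations were averaged when reads were ≥30 in every replicate and the CV was ≤0.5.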
UniProt P04483, sequence (P04483 whole entry): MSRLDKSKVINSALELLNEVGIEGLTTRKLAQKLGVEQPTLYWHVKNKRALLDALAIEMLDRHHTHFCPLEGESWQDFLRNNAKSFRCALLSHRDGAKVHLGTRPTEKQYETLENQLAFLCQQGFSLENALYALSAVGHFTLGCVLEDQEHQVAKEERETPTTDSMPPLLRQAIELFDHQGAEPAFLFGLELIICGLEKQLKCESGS
For the sequence TCCCCGGCAGTGTGGGAGA, the TetR repression strength is 0.321.
In the case of TCCCTAGGAGTCACGGAGA it was 0.315.
For the sequence TCCCCGTAAGTTGCCGAGA, the TetR repression strength was 0.205.
Sequence TCCCGGGAAGTGAGAGAGA had a TetR repression strength of 0.202.
For the sequence TCCCGGTGAGTACGCGAGA, the TetR repression strength worked out at 0.145.
The result for TCCCAAGCAGTGACCGAGA reads 0.232; that for TCCCGTCGAGTGCGAGAGA, 0.247; that for TCCCCGTTAGTATCGGAGA, 0.00823.
The result for TCCCAAACAGTAAGCGAGA reads 0.00622.
The result for TCCCCGCTAGTGGGAGAGA reads 0.1.
TCCCTGCAAGTGATTGAGA yielded a TetR repression strength of 0.356.
In the case of TCCCCGCTAGTGTAGGAGA it was 0.366; in that of TCCCATAAAGTTGTGGAGA, 0.24.
Consider TCCCATGTAGTCTCAGAGA, for which the TetR repression strength worked out at 0.195.
TCCCCATAAGTGTGAGAGA had a TetR repression strength of 0.221.
As for TCCCGCAGAGTTTCAGAGA, the TetR repression strength is 0.238.
In the case of TCCCAGACAGTTATTGAGA it was 0.134; in that of TCCCGTCCAGTCTCTGAGA, 0.377; in that of TCCCGCGCAGTGGCGGAGA, 0.196.
In the case of TCCCTTAAAGTGATAGAGA it was 0.406.
In turn, TCCCTCATAGTGTGGGAGA had a TetR repression strength of 0.176.
For the sequence TCCCTTCTAGTCGCCGAGA, the TetR repression strength worked out at 0.42.
The result for TCCCATTGAGTGGGAGAGA reads 0.356; that for TCCCACTTAGTTGGGGAGA, 0.201.
The result for TCCCTATGAGTGGTAGAGA reads 0.288.
In the case of TCCCAGAGAGTATATGAGA it was 0.104; in that of TCCCATAGAGTGCATGAGA, 0.263.
On to TCCCGGCAAGTTTTGGAGA, for which the TetR repression strength was 0.283.
Sequence TCCCTAGTAGTAGGTGAGA yielded a TetR repression strength of 0.0518.
Take TCCCGTGGAGTGGAAGAGA: the TetR repression strength turned out to be 0.353.
In the case of TCCCCAAAAGTTTTGGAGA it was 0.276; in that of TCCCTGTGAGTATGGGAGA, 0.219.
In the case of TCCCTATCAGTTGTTGAGA it was 0.441; in that of TCCCGGGCAGTGGAAGAGA, 0.388.
TCCCGGCAAGTGTTTGAGA: the TetR repression strength was found to be 0.11.
The sequence TCCCGCTGAGTAACTGAGA returned a TetR repression strength of 0.247.
The result for TCCCCATAAGTCGTAGAGA reads 0.0346; that for TCCCAGGCAGTGCGTGAGA, 0.559; that for TCCCGAATAGTAGAGGAGA, 0.104.
In the case of TCCCAAGGAGTCACTGAGA, the TetR repression strength worked out at 0.216.
TCCCTGGGAGTCAGAGAGA yielded a TetR repression strength of 0.548.
In the case of TCCCAATTAGTACTCGAGA, the TetR repression strength was 0.374.
Consider TCCCCGACAGTGCGAGAGA, for which the TetR repression strength was found to be 0.104.
In the case of TCCCCACTAGTGCTAGAGA it was 0.311.
In the case of TCCCTTACAGTGGAAGAGA it was 0.133; in that of TCCCGATAAGTCGGCGAGA, 0.28; in that of TCCCGTTGAGTTGCAGAGA, 0.379.
The result for TCCCTAGTAGTGATAGAGA reads 0.533; that for TCCCGCCCAGTTCCTGAGA, 0.369.
The sequence TCCCAGAGAGTGGCAGAGA came in with a TetR repression strength of 0.278.
In turn, TCCCATCGAGTCCAAGAGA had a TetR repression strength of 0.229.
In the case of TCCCATAGAGTCCGGGAGA it was 0.365; in that of TCCCAACAAGTTCTGGAGA, 0.148.
The sequence TCCCGTTTAGTTTGAGAGA showed a TetR repression strength of 0.217.
For TCCCGGCTAGTGATAGAGA, the TetR repression strength amounted to 0.477.
The sequence TCCCGTTCAGTCGTTGAGA displayed a TetR repression strength of 0.339.
Sequence TCCCTCGCAGTGTGTGAGA showed a TetR repression strength of 0.243.
Sequence TCCCGTTTAGTCACCGAGA yielded a TetR repression strength of 0.00432.
The result for TCCCCTAGAGTTGGCGAGA reads 0.415.
With TCCCGAGTAGTTAGTGAGA, the TetR repression strength came out at 0.111.
For the sequence TCCCGCTCAGTCCTCGAGA, the TetR repression strength was determined as 0.0498.
In the case of TCCCCAGAAGTAGGTGAGA it was 0.203.
TCCCGCAAAGTCTCAGAGA registered a TetR repression strength of 0.283.
The result for TCCCGTGAAGTGAACGAGA reads 0.0691; that for TCCCATGGAGTGGATGAGA, 0.28.
The result for TCCCGCGCAGTGTGTGAGA reads 0.0407; that for TCCCATGCAGTGTCAGAGA, 0.205.
The result for TCCCATTAAGTGTAGGAGA reads 0.275.
The sequence TCCCTCGAAGTTAAGGAGA yielded a TetR repression strength of 0.359.
The result for TCCCAGCCAGTCGAGGAGA reads 0.248.
TCCCGCGCAGTGGCTGAGA yielded a TetR repression strength of 0.199.
The result for TCCCGGGCAGTGCAAGAGA reads 0.609; that for TCCCCCAGAGTTCGAGAGA, 0.191.
The result for TCCCGTACAGTACGGGAGA reads 0.173; that for TCCCGGCGAGTGTGGGAGA, 0.449.
In turn, TCCCTATAAGTGGAAGAGA displayed a TetR repression strength of 0.404.
In turn, TCCCTCTTAGTGTGGGAGA registered a TetR repression strength of 0.0777.
In the case of TCCCAGCAAGTCGACGAGA, the TetR repression strength is 0.109.
In turn, TCCCACGGAGTAGTAGAGA returned a TetR repression strength of 0.207.
In the case of TCCCTTACAGTGATGGAGA it was 0.219.
As to TCCCCGCTAGTAAACGAGA, the TetR repression strength worked out at 0.477.
The result for TCCCACTTAGTGTTGGAGA reads 0.0188; that for TCCCCATTAGTTGGCGAGA, 0.242; that for TCCCCCTCAGTAGGGGAGA, 0.15.
The result for TCCCGAGCAGTACCTGAGA reads 0.154; that for TCCCTGGAAGTAATTGAGA, 0.181.
The result for TCCCGGGCAGTCTATGAGA reads 0.246; that for TCCCTCATAGTTATGGAGA, 0.223.
With TCCCCTGTAGTGTTTGAGA, the TetR repression strength worked out at 0.396.
The result for TCCCTGTGAGTTGAGGAGA reads 0.19.
In the case of TCCCTGGGAGTTTAGGAGA it was 0.302.
The result for TCCCTGCGAGTGATAGAGA reads 0.618.
In the case of TCCCCGCCAGTGGTCGAGA, the TetR repression strength amounted to 0.25.
In the case of TCCCAACAAGTGGCAGAGA it was 0.0484.
The result for TCCCGGGAAGTCCGCGAGA reads 0.144; that for TCCCGGTCAGTTTGTGAGA, 0.308.
In the case of TCCCGTCGAGTATTGGAGA it was 0.293; in that of TCCCGATAAGTGAGTGAGA, 0.375.
Turning to TCCCATGGAGTTTCGGAGA, the TetR repression strength worked out at 0.219.
The result for TCCCAGCGAGTCATCGAGA reads 0.17; that for TCCCACCGAGTCGCGGAGA, 0.189; that for TCCCACACAGTTGGGGAGA, 0.0814.
